Reference: the RNAGym collection of RNA variant scans (doi:10.7554/elife.90254)
The source gives no read counts; variants with many changes may rest on few reads.

B1: OR4K15 (parent)
chain: GUUAACGGUCAUAGGCCAUGGAAACUAGGAGCACCAUUUCGCUGCCAGUGAAGAAAUGAACAAAGAAAAUCUGGGCCAGGCAGGCAUCAAAAGAAAUAGUCUUGCGCUCAACCAGAAAGUCUGUAAUCAUUUUAAGGGUA

Variants of: B1
Experiment: self-cleavage, relative activity (ratio to wild type); higher = more cleavage; in vitro, sequencing; the parent is a self-cleaving ribozyme

Variant | self-cleavage
A23G A24U U87A U132C | 1.06
A23G A69G U70C | 0.45
A22G U37C U43A A110G U132C | 0.13
A23G G115U A118G | 0.18
A23G U26C C71U U102C | 0.39
A23C U49C A52G A56G | 2
A22G U26C A118G | 0.44
A23G A27G A52G | 1.07
A22G U37C C85U U127A | 0.29
A23G A55G A110G A111G | 0.16
A23G A27U U43A A54U A110G A116U U122C U133A | 0.02
A23G U38C U72A U139C | 0.26
A23G U38A A51U A94G | 1.46
A23C A47U U49G A140G | 0.49
A23G A55G A62G U108C | 0.08
A22G U108C A117G | 0
A23G A110G A135G | 0.11
A23G U39C C85U | 1.09
A23C U49G A51G A56G | 0.65
A23G A68G U70G A117G A129G | 0.14
A22U A47G U57C A90G A126G | 0.25

Variant | self-cleavage
A23G U43A A62U G79A U100C | 0.04
A23G A66G A117G | 0.44
A22G U43A A67G A96G | 0.95
A22U A63G U108C U127C | 0.01
A22U A23G A118G | 0.91
A23G A33G A114G | 0.3
A23G A24G A96G A118U | 1.06
A22G C77A G106C | 0
A22G U49A A52G A67C A125G | 0.82
A22G U39C U120A U127C | 0.53
A23G U37C U38C U131C A135U | 1.3
A22G U38C A51G A66G C77U A126G A129U | 0.68
A23G A68G A111C | 0
A22U A89G A90G G136A | 0.97
A22G C42U U139C | 0.88
A23G A69G C85U A129U | 0.29
A23G U37C G75U A95G G106A | 0
A23G A52G A56G A92G U97C | 1.05
A23G U38C A54G A94U | 1.31
A22G A96G U132C | 0.81
A23G U39C U87A A96U | 1.21

Variant | self-cleavage
A22U A89G A129U | 0.81
A22U A66G U102A | 0.91
A22G U37C U43A A94G | 1.18
A22G U57C A114C A118G | 0.04
A23G A27U U38A A59U | 0.58
A23G A54G A60G U70G U122C | 0.42
A22U A89G C112U | 0.01
A23G U26C A33G U87C A90G | 0.06
A23G A94U A98G A118G | 0.33
A23G U38C A59G A89G | 0.94
A23C U43A U131C | 1.28
A22G A126U U130C | 0.92
A22G U87A A92G | 1.44
A23G A55U A95G | 0.79
A23G A78G U124C | 0.18
A23G U39A A52G A59G | 0.36
A22G U37C A90G | 0.53
A23G A51U U102C | 1.47
A23G A67G U87C A94G | 0.3
A23G A47G A96G | 1.5
A23G A52G A86U | 1.41

Variant | self-cleavage
A22U U49C A86U | 1.74
A22U A89G A126U | 0.72
A22G C35U U70C A91G U103C | 0.12
A22G G83A A116G U131C | 0.44
A22G U108A A134G | 0.02
A23G A66G A78G G84C | 0.08
A23G C42U U43C | 1.12
A23G A54G U100A | 1
A23G A47U U127C | 0.02
A23G A54G A62G A78G | 0.54
A22G A114U A126G | 0.01
A23G U38C A54G U57C U102C | 1.56
A22G C25U A96G | 1.86
A22U A111U A114U | 0.02
A23G A59G U132A | 0.6
A23G A89U U132C | 1.8
A23G U38C A51G A52G U72C A91G | 0.09
A23G U49A A86U A95G A96G | 1.5
A23G A47U A51G A140U | 0.28
A23G C42U A51G U57C A62U U108C A126G | 0.01
